# Test results published in the supplement of paper PMC9135407.
# Several values for one entry are separate records, joined by “and”; a condition that tells them apart may be missing. Equal entries are not always repeated. Structures can show the parent of a compound that is named as a salt. Screen size: about 5,800 compounds; about 620 (11%) showed activity.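 Rule for the calls: active = score above a cut-off or among the top three wells of a plate; in these data no inactive exceeds 0.85.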 Only a part is listed here, and it is no random draw.
# Test system: primary human hepatic stellate cells (donor 1)
# Experiment: scaled lipid accumulation score (0 = DMSO-like, 1 = nortriptyline-like); higher = stronger HSC inactivation (lipid re-accumulation), active = hit call of the paper
# Settings: 48 h
# [1] = library stock concentration: 3.33 mM
# [2] = library stock concentration: 10 mM
# [3] = library stock concentration: 1 mM
# [4] = library stock concentration: 80 uM
# [5] = library stock concentration: 400 uM
# [6] = library stock concentration: 2 mM
compound,measurement,setting,value
CN(C/C=C/c1ccccc1)Cc1cccc2ccccc12 [Naftifine hydrochloride],scaled lipid accumulation score,,inactive: ≤ 0
Nc1c(CC(=O)O)cccc1C(=O)c1ccc(Br)cc1 [Bromfenac Sodium],scaled lipid accumulation score,[1],inactive: ≤ 0
same,scaled lipid accumulation score,[2],inactive: 0.121
COc1cccc(Nc2c(C(N)=O)cnc3c(C)cc(S(=O)(=O)c4cccc(C(=O)N(C)C)c4)cc23)c1,scaled lipid accumulation score,[1],inactive: ≤ 0
same,scaled lipid accumulation score,[2],inactive: ≤ 0
C[C@]12C=CC(=O)C=C1CC[C@H]1[C@@H]3C[C@@H](O)[C@](O)(C(=O)CO)[C@@]3(C)C[C@H](O)[C@@]12F [Triamcinolone],scaled lipid accumulation score,,inactive: 0.004
same,scaled lipid accumulation score,[1],inactive: ≤ 0
same,scaled lipid accumulation score,library stock concentration: 5.1 mM,inactive: ≤ 0
same,scaled lipid accumulation score,[2],inactive: ≤ 0
CC(C(C)N1CC(=O)NC(=O)C1)N1CC(=O)NC(=O)C1 (stereo not given),scaled lipid accumulation score,library stock concentration: 17.7 mM,inactive: ≤ -0.012
CC1(C)O[C@@H]2C[C@H]3[C@@H]4CCC5=CC(=O)CC[C@]5(C)[C@@]4(F)[C@@H](O)C[C@]3(C)[C@]2(C(=O)CCl)O1 [Halcinonide],scaled lipid accumulation score,,inactive: ≤ 0
same,scaled lipid accumulation score,[1],inactive: ≤ 0
same,scaled lipid accumulation score,[2],inactive: ≤ -0.001 and inactive: 0.225
C[C@@H]1O[C@@H](OC[C@H]2O[C@@H](Oc3c(-c4ccc(OCCO)c(OCCO)c4)oc4cc(OCCO)cc(O)c4c3=O)[C@H](O)[C@@H](O)[C@@H]2O)[C@H](O)[C@H](O)[C@H]1O [Troxerutin],scaled lipid accumulation score,[1],inactive: ≤ 0
same,scaled lipid accumulation score,[2],inactive: 0.014 and inactive: 0.055
CCN(CC)C(=O)/C(C#N)=C/c1cc(O)c(O)c([N+](=O)[O-])c1 [Entacapone],scaled lipid accumulation score,[1],inactive: ≤ 0
same,scaled lipid accumulation score,library stock concentration: 6.6 mM,inactive: 0.018
same,scaled lipid accumulation score,[2],inactive: 0.074
CCCCCCCC/C=C\CCCCCCCC(=O)NCCO [Oleoyl Ethanolamide],scaled lipid accumulation score,[3],inactive: 0.024
CCCCCCCC/C=C\CCCCCCCC(=O)NCCO [Oleylethanolamide],scaled lipid accumulation score,[2],inactive: 0.119
CCCCCCCC/C=C\CCCCCCCC(=O)NCCO [N-Oleoylethanolamine],scaled lipid accumulation score,[2],inactive: 0.267
O=C(O)CCNc1cc(N2CCc3ccccc3CC2)nc(-c2cccnc2)n1,scaled lipid accumulation score,[4],inactive: ≤ 0
same,scaled lipid accumulation score,[5],inactive: ≤ 0
same,scaled lipid accumulation score,[6],inactive: ≤ 0
same,scaled lipid accumulation score,[2],inactive: ≤ 0
CC1(C)C(=O)N=C2C1=C(O)C(=O)c1ccccc12,scaled lipid accumulation score,[2],active: 0.923
CC(=O)NCC(=O)N[C@H](CCC(=O)O)C(=O)O [N-Acetylglycyl-D-glutamic acid],scaled lipid accumulation score,[2],inactive: ≤ 0
C[C@@H](O)[C@H]1C(=O)N2C(C(=O)O)=C(S[C@@H]3CN[C@H](C(=O)N(C)C)C3)[C@H](C)[C@H]12,scaled lipid accumulation score,[2],inactive: ≤ 0
C[C@@H](O)[C@H]1C(=O)N2C(C(=O)O)=C(S[C@@H]3CN[C@H](C(=O)N(C)C)C3)[C@H](C)[C@H]12 [Meropenem],scaled lipid accumulation score,,inactive: ≤ 0
same,scaled lipid accumulation score,[1],inactive: 0.065
same,scaled lipid accumulation score,library stock concentration: 5.2 mM,inactive: ≤ 0
same,scaled lipid accumulation score,[2],inactive: ≤ 0
Cc1nc(Nc2ncc(C(=O)Nc3c(C)cccc3Cl)s2)cc(N2CCN(CCO)CC2)n1,scaled lipid accumulation score,[6],active: 1.18
same,scaled lipid accumulation score,[2],active: 1.48
Cn1cc(C(=O)OCC2CCN(CCNS(C)(=O)=O)CC2)c2ccccc21,scaled lipid accumulation score,[2],active: 0.925
CC(=O)O[C@H]1C[C@@H]2CC[C@@H]3[C@H](CC[C@@]4(C)[C@H]3C[C@H]([N+]3(C)CCCCC3)[C@@H]4OC(C)=O)[C@@]2(C)C[C@@H]1N1CCCCC1,scaled lipid accumulation score,[2],inactive: ≤ 0
CC(=O)O[C@H]1C[C@@H]2CC[C@@H]3[C@H](CC[C@@]4(C)[C@H]3C[C@H]([N+]3(C)CCCCC3)[C@@H]4OC(C)=O)[C@@]2(C)C[C@@H]1N1CCCCC1 [Vecuronium Bromide],scaled lipid accumulation score,[1],inactive: ≤ 0
same,scaled lipid accumulation score,[2],inactive: ≤ 0
CC1(C)C[C@@H]1C(=O)N/C(=C\CCCCSC[C@H](N)C(=O)O)C(=O)O [Cilastatin sodium],scaled lipid accumulation score,[2],inactive: ≤ -0.001
CC1(C)C[C@@H]1C(=O)N/C(=C\CCCCSC[C@H](N)C(=O)O)C(=O)O,scaled lipid accumulation score,[2],inactive: ≤ 0
Cc1cc(Cn2cnc3c2C[C@@H](C(=O)O)N(C(=O)C(c2ccccc2)c2ccccc2)C3)ccc1N,scaled lipid accumulation score,[2],inactive: ≤ 0
CCCCCC(=O)O[C@]1(C(C)=O)CC[C@H]2[C@@H]3CCC4=CC(=O)CC[C@]4(C)[C@H]3CC[C@@]21C [Hydroxyprogesterone caproate],scaled lipid accumulation score,library stock concentration: 4.7 mM,inactive: ≤ -0.001
same,scaled lipid accumulation score,[2],inactive: ≤ 0
Oc1cc2c(cc1O)CN(C(=S)NCCc1ccc(Cl)cc1)CCC2 [Capsazepine],scaled lipid accumulation score,[3],inactive: 0.038
same,scaled lipid accumulation score,[2],inactive: 0.015 and inactive: ≤ 0
NS(=O)(=O)C#Cc1ccccc1 [Pifithrin-mu],scaled lipid accumulation score,[2],active: 1.02
O=C(O)CCC(=O)O.O=C(O[C@H]1CN2CCC1CC2)N1CCc2ccccc2[C@@H]1c1ccccc1 [Solifenacin succinate],scaled lipid accumulation score,[2],active: 1.3
CCCCCCC(=O)OC1CC(C)(C)NC(C)(C)C1 [TMPH hydrochloride],scaled lipid accumulation score,[2],inactive: ≤ -0.055 and inactive: ≤ -0.001
CC[C@@H]1C(=O)N(C)c2cnc(Nc3ccc(C(=O)NC4CCN(C)CC4)cc3OC)nc2N1C1CCCC1,scaled lipid accumulation score,[5],active: 1.02
CN(C)Cc1cccc(N=C(c2ccccc2)c2c(O)[nH]c3cc(C(=O)N(C)C)ccc23)c1,scaled lipid accumulation score,[4],inactive: ≤ -0.009
same,scaled lipid accumulation score,[5],inactive: 0.07
same,scaled lipid accumulation score,[6],inactive: 0.08
same,scaled lipid accumulation score,[1],inactive: 0.325
same,scaled lipid accumulation score,[2],inactive: 0.535 and inactive: 0.688
NC[C@@H](O)c1ccc(O)c(O)c1 [L(-)-Norepinephrine bitartrate],scaled lipid accumulation score,[2],inactive: ≤ 0
C[C@@H]1C[C@H]2[C@@H]3C[C@H](F)C4=CC(=O)C=C[C@]4(C)[C@@]3(Cl)[C@@H](O)C[C@]2(C)[C@H]1C(=O)COC(=O)C(C)(C)C [Clocortolone pivalate],scaled lipid accumulation score,,inactive: ≤ 0
Nc1nc(Cl)nc2c1ncn2[C@@H]1O[C@H](COP(=O)(O)OP(=O)(O)OP(=O)(O)O)[C@H](O)C1O (stereo not given in full) [2-Chloroadenosine triphosphate tetrasodium],scaled lipid accumulation score,[2],inactive: 0.505
CC(C)(C)n1nc(-c2cccc3ccccc23)c2c(N)ncnc21 [1-Naphthyl PP1],scaled lipid accumulation score,[2],inactive: 0.016
COc1ccc2c(c1)c(CC(=O)N1CCOCC1)c(C)n2C(=O)c1ccc(Cl)cc1,scaled lipid accumulation score,[3],inactive: ≤ -0.021
same,scaled lipid accumulation score,[1],inactive: ≤ 0
same,scaled lipid accumulation score,[2],inactive: ≤ 0 and inactive: ≤ -0.006
OC(c1cc(C(F)(F)F)nc2c(C(F)(F)F)cccc12)C1CCCCN1 (stereo not given) [Mefloquine hydrochloride],scaled lipid accumulation score,,inactive: ≤ 0
same,scaled lipid accumulation score,[2],inactive: 0.12
OC(c1cc(C(F)(F)F)nc2c(C(F)(F)F)cccc12)C1CCCCN1 (stereo not given) [Mefloquine],scaled lipid accumulation score,library stock concentration: 4.8 mM,inactive: 0.805
same,scaled lipid accumulation score,[2],inactive: 0.525
OC(c1cc(C(F)(F)F)nc2c(C(F)(F)F)cccc12)C1CCCCN1 (stereo not given) [Mefloquine HCl],scaled lipid accumulation score,[1],inactive: 0.536
same,scaled lipid accumulation score,[2],inactive: ≤ -0.001
CC[C@H]1OC(=O)C[C@@H](O)[C@H](C)[C@@H](O[C@@H]2O[C@H](C)[C@@H](O)[C@H](N(C)C)[C@H]2O)[C@@H](CCN2C[C@H](C)C[C@H](C)C2)C[C@@H](C)C(=O)/C=C/C(C)=C/[C@@H]1CO[C@@H]1O[C@H](C)[C@@H](O)[C@@H](OC)[C@H]1OC [Tilmicosin],scaled lipid accumulation score,library stock concentration: 2.3 mM,inactive: ≤ 0
same,scaled lipid accumulation score,[1],inactive: 0.171
same,scaled lipid accumulation score,[2],inactive: 0.847
O=C1Cc2c([nH]c3ccc(Br)cc23)-c2ccccc2N1 [Kenpaullone],scaled lipid accumulation score,[3],inactive: ≤ 0
same,scaled lipid accumulation score,[1],inactive: ≤ 0
same,scaled lipid accumulation score,[2],inactive: ≤ -0.055 and inactive: 0.348
CCc1c(O)cc(O)c(C(=O)c2ccc(OCCN3CCOCC3)c(OC)c2)c1CC(=O)N(CCOC)CCOC,scaled lipid accumulation score,[1],inactive: 0.686
same,scaled lipid accumulation score,[2],inactive: 0.625
CNCCCC12CCC(c3ccccc31)c1ccccc12 [Maprotilline HCl],scaled lipid accumulation score,[2],active: 1.35
CNCCCC12CCC(c3ccccc31)c1ccccc12 [Maprotiline HCl],scaled lipid accumulation score,[1],inactive: 0.678
Cc1coc2c1C(=O)C(=O)c1c-2ccc2c1CCCC2(C)C [Tanshinone iia],scaled lipid accumulation score,library stock concentration: 6.8 mM,inactive: 0.251
Cc1coc2c1C(=O)C(=O)c1c-2ccc2c1CCCC2(C)C [Tanshinone IIA],scaled lipid accumulation score,[1],inactive: ≤ 0
same,scaled lipid accumulation score,[2],inactive: 0.377
same,scaled lipid accumulation score,library stock concentration: 17 mM,inactive: ≤ -0.021
CC(C)C[C@H](NC(=O)CNC(=O)c1cc(Cl)ccc1Cl)B(O)O,scaled lipid accumulation score,[1],inactive: 0.157
same,scaled lipid accumulation score,[2],inactive: 0.363
O=C(O[C@@H]1Cc2c(O)cc(O)cc2O[C@@H]1c1cc(O)c(O)c(O)c1)c1cc(O)c(O)c(O)c1 [Epigallocatechin gallate],scaled lipid accumulation score,[4],inactive: ≤ 0
same,scaled lipid accumulation score,[5],inactive: ≤ 0
same,scaled lipid accumulation score,[6],inactive: ≤ 0
same,scaled lipid accumulation score,[2],inactive: ≤ 0
O=C(O[C@@H]1Cc2c(O)cc(O)cc2O[C@@H]1c1cc(O)c(O)c(O)c1)c1cc(O)c(O)c(O)c1 [(-)-Epigallocatechin Gallate],scaled lipid accumulation score,[3],inactive: ≤ 0
CCOC(=O)[C@H](CCc1ccccc1)N[C@@H](C)C(=O)N1[C@H](C(=O)O)C[C@H]2CCCC[C@@H]21 [Trandolapril],scaled lipid accumulation score,[2],inactive: 0.059 and inactive: 0.177
CC(C)(CO)[C@@H](O)C(=O)NCCCO [Dexpanthenol],scaled lipid accumulation score,library stock concentration: 9.7 mM,inactive: 0.02
N#C[C@@H]1CCCN1C(=O)CNC12CC3CC(CC(O)(C3)C1)C2 [Vildagliptin (LAF-237)],scaled lipid accumulation score,[1],inactive: ≤ 0
same,scaled lipid accumulation score,[2],inactive: ≤ 0
CCN(CC)CCN(Cc1ccc(-c2ccc(C(F)(F)F)cc2)cc1)C(=O)Cn1c(SCc2ccc(F)cc2)nc(=O)c2c1CCC2,scaled lipid accumulation score,[1],inactive: 0.746
same,scaled lipid accumulation score,[2],inactive: 0.058
CN1CCN(C2=Nc3cc(Cl)ccc3Nc3ccccc32)CC1 [Clozapine],scaled lipid accumulation score,[2],active: 0.977
CCOc1ccn(-c2ccc(F)cc2)c(=O)c1C(=O)Nc1ccc(Oc2ccnc(N)c2Cl)c(F)c1,scaled lipid accumulation score,[4],inactive: ≤ -0.009
same,scaled lipid accumulation score,[5],inactive: ≤ -0.009
same,scaled lipid accumulation score,[6],inactive: 0.004
same,scaled lipid accumulation score,[1],inactive: ≤ 0
same,scaled lipid accumulation score,[2],inactive: ≤ 0 and inactive: ≤ -0.009
